# The whole screen tested about 310,000 compounds, of which about 2,200 (0.71%) showed an effect of 50% or more. Effects have a minus sign here. Some of the results follow.
# Biological target: human ether-à-go-go-related gene (hERG) potassium channel (human, UniProt Q12809)
# Assay: primary screen, population patch clamp on CHO cells stably expressing hERG
# Chain of human ether-à-go-go-related gene (hERG) potassium channel (Q12809 whole entry, looked up): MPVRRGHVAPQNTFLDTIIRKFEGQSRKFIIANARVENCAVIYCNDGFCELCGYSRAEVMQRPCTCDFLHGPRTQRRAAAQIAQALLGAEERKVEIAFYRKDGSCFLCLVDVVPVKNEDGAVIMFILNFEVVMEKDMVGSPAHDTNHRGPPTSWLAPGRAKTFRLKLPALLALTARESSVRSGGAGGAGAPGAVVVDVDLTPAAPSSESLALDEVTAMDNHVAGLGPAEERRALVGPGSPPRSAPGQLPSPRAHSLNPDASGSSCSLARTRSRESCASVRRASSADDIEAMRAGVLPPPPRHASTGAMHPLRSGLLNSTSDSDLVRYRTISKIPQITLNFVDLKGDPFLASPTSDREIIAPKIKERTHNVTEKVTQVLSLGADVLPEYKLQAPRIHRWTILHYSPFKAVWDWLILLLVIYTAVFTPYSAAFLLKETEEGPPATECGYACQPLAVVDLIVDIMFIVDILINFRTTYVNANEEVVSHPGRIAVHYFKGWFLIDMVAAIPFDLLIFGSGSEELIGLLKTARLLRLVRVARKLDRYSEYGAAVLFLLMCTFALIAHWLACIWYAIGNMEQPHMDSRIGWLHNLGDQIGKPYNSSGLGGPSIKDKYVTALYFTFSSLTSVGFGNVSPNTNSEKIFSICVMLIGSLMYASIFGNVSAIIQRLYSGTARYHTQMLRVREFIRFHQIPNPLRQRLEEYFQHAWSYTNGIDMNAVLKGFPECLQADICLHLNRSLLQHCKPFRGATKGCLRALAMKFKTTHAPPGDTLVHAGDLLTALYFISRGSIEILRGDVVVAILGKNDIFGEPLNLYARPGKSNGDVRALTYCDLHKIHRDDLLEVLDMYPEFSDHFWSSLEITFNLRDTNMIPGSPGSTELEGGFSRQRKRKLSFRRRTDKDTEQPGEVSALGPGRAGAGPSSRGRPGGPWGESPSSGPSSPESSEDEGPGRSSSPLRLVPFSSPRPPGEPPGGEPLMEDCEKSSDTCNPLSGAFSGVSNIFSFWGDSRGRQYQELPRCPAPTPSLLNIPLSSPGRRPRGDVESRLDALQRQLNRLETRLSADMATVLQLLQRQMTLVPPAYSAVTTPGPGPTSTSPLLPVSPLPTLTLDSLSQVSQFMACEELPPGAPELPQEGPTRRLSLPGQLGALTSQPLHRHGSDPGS
row,SMILES,"hERG current change (%, negative = inhibition) at 1uM [%]"
1,O=C(O)/C=C/c1cccnc1,13
2,C=CCOc1c(Br)cc(CNc2ccc(NC(=O)C(C)C)c(OC)c2)cc1OCC,4.04
3,c1ccc(-c2nc(-c3ccccn3)nc(-c3ccccn3)n2)nc1,16.8
4,CCCOc1c(Br)cc(C(N)=O)cc1OCC,5.14
5,COCCCNC(=S)NNC(=O)C(O)(c1ccccc1)c1ccccc1,-14.2
6,CCS(=O)(=O)N1CCC(C(=O)NCc2ccccn2)CC1,-0.459
7,COc1ccccc1C(=O)NCc1ccccc1,14.1
8,CSc1nc(O)c(C(c2ccc(C)cc2)c2c(O)nc(SC)[nH]c2=O)c(=O)[nH]1,11.6
9,CC(CS(=O)(=O)c1cccc2cccnc12)N1CCCCC1 (stereo not shown),8.83
10,c1ccc2c(-c3c[nH]c4ccccc34)c3ccccc3nc2c1,14.3
11,CC(=O)c1c(C(=O)O)c2ccccc2[nH]c1=O,10.1
12,Cc1ccc(CCNC(=O)c2ccc(CS(=O)(=O)Cc3ccccc3F)o2)cc1,5.38
13,Cc1ccc(C(C(=O)NC2CCCCC2)N(CC2CCCO2)C(=O)CNC(=O)c2cccs2)cc1 (stereo not shown),-2.84
14,CC1CCCC(NC(=O)COC(=O)[C@@H](NC(=O)c2ccco2)C(C)C)C1C (stereo partly shown),-4.22
15,COc1ccc(OC)c(NC(=O)CN(c2ccc(OC)c(Cl)c2)S(C)(=O)=O)c1,2.52
16,O=c1[nH]c(=O)n(CCc2ccccc2)c(O)c1C=NCCN1CCNCC1,0.43
17,COc1ccc(CCNC(=O)CCOc2ccc(C)cc2)cc1OC,9.77
18,CCOC(=O)c1cnc2ccccc2c1Nc1cccc(C(=O)O)c1.Cl,15
19,CCOC(=O)c1ccc(N2CCOCC2)c(NC(=O)c2c(-c3ccccc3)noc2C)c1,7.87
20,O=C(O)C1CC(=O)N(CCc2ccc(F)cc2)C1 (stereo not shown),15.2

row,SMILES,"hERG current change (%, negative = inhibition) at 1uM [%]"
1,Cc1ccc(S(=O)(=O)N2CCN(c3ccc(C(=O)N4CCOCC4)cc3[N+](=O)[O-])CC2)cc1,-7.36
2,Cc1c(C=Nc2ccc(S(=O)(=O)N(C)C)cc2)c(O)[nH]c(=O)c1C#N,16.6
3,O=C(CC1SC(=Nc2ccc(OC(F)F)cc2)N(CCN2CCOCC2)C1=O)Nc1ccc(F)cc1F (stereo not shown),-80.4
4,Cc1ccc(C(=O)Nc2ccccc2C(=O)NC(Cc2c[nH]c3ccccc23)C(=O)O)cc1 (stereo not shown),10.2
5,COc1ccc(-c2cc(=O)c3cc(OC)c(OC)cc3[nH]2)cc1,2.37
6,COc1ccc(Br)cc1C(=O)NCc1cccnc1,-15.8
7,CC(C)NC(=O)c1cc(-c2ccc3c(c2)OCO3)on1,11.6
8,CN(C)CC#CCC(O)(c1ccccc1)C1CCCCC1 (stereo not shown),13.3
9,Cc1cccc(COc2coc(CN3CCN(C(=O)c4ccco4)CC3)cc2=O)c1,-7.28
10,O=C(Cc1ccc(S(=O)(=O)N2CCOCC2)s1)NCCC(c1ccccc1)c1ccccc1,-3.02
11,CCOc1ccc(N(C(C)C(=O)N2CCCC2)S(C)(=O)=O)cc1 (stereo not shown),13.2
12,COCC(=O)Nc1cc(OC)c(Cl)cc1OC,3.8
13,CC(C)CC(=O)Nc1nnc(SCC(=O)NCC2CCCO2)s1 (stereo not shown),8.63
14,CNC(=O)c1ccc(NC(=O)CC23CC4CC(CC(C4)C2)C3)cc1,19.5
15,COc1cccc(CNC(=O)Cn2ncc3c(=O)oc4ccccc4c32)c1,3.34
16,O=C(NCCc1ccc(Cl)cc1)c1cc2ccccn2n1,5.29
17,CCc1ccc(NC(=O)CSc2nc(=O)n3cc(C)ccc3n2)cc1,-4.72
18,CSc1nc2nccc(-c3ccc(-c4ccccc4)cc3)n2n1,8.03
19,Cc1ccc(N2C(=O)C3C4C=CC(CNC(=S)Nc5ccc(F)cc5)(O4)C3C2=O)cc1 (stereo not shown),2.93
20,CCN(CC)CC(=O)Nc1c(C)cccc1C.Cl.O,-4.22

row,SMILES,"hERG current change (%, negative = inhibition) at 1uM [%]"
1,COc1ccc(-c2[nH]ncc2CN(C)Cc2cnccn2)c(OC)c1,11.7
2,COC(=O)C(C)Sc1nc2c(cnn2-c2ccc(C)cc2)c(=O)[nH]1 (stereo not shown),8.65
3,CCOC(=O)c1c(NC(=O)c2ccccc2Cl)sc2c1CCc1ccccc1-2,16.6
4,Cc1ccc(Cl)cc1NC(=O)COC(=O)C1CCCC1,4.08
5,CCCCn1c2ccccc2c2cc(CC(N)=O)ccc21,10.9
6,COc1ccc2cc(C3CC(c4ccco4)=NN3S(C)(=O)=O)c(Cl)nc2c1 (stereo not shown),8.22
7,O=C(Nc1ccc([N+](=O)[O-])cn1)c1cccnc1,10
8,Cn1c(=O)c2[nH]c(CCCC(=O)O)nc2n(Cc2ccccc2)c1=S,14.1
9,N#CC1(NC(=O)COC(=O)c2cc([N+](=O)[O-])ccc2N2CCCC2)CCCCC1,5.64
10,Cc1c(C(C)(C)O)[nH]c2ccc(C(F)(F)F)cc12,-3.91
11,O=C(NCc1cccnc1)c1cccnc1Sc1ccc(Cl)cc1,6
12,COCc1ccc(C(=O)N2CCCC(C(=O)c3ccc(SC)cc3)C2)o1 (stereo not shown),-10.7
13,CCOC(=O)c1c(NC(=O)CCl)sc(CN(C)C)c1-c1ccccc1.Cl,13.3
14,CC1CCN(C(=O)C2CCC(CNc3c(N4CCCCC4)c(=O)c3=O)CC2)CC1 (stereo not shown),14.9
15,COc1cc(NC(=S)NCCCN2CCOCC2)c(OC)cc1NC(=O)c1ccco1,8.64
16,Cc1cc(C(=O)N/N=C/c2c(CO)cnc(C)c2O)c2ccccc2n1,15.3
17,COc1ccc(-c2cc(C(=O)N3CCCCC3)c3ccccc3n2)cc1,6.49
18,CCS(=O)(=O)c1ccc(O)c(NC(=O)COc2ccc(Cl)cc2)c1,3.4

# Source: publication PMC4336329 (PLoS ONE, 2015)
